Target: PRMT5/MEP50 Complex (Homo sapiens (Human), UniProt O14744)
Assay: PRMT5 inhibition based on TR-FRET assay
Format: biochemical
Details: 32 nM PRMT5:MEP50 complex, 50 nM Histone-H4 peptide, 1 μM SAM, 90 minutes at room temperature
From the text: Protein arginine methyltransferase 5 (PRMT5) is a type II arginine methyltransferase that catalyze mono- and symmetric demethylation on arginine residues of histone or non-histone proteins in presence of S-adenosylmethionine (AdoMet or SAM) a cofactor responsible for donating the methyl group. PRMT5 is reported to be overexpressed in several human cancers. To identify compounds that inhibit the PRMT5 and decrease its activity, a TR-FRET based assay has been established. Time-resolved fluorescence resonance energy transfer (TR-FRET) HTS assays are homogeneous proximity assays where the interaction of two dye-labeled binding partners is detected by the energy transfer between a donor and an acceptor dye, and the subsequent light emission by the acceptor dye. PRMT5 catalyzes Histone H4 peptide which is biotin tagged to the Lysine amino acid at carboxyl end, in presence of S-adenosyl-1-methionine (SAM) to methylate the peptide. The antibody specific to mono methylated H4 peptide (H4R3) with Ig conjugate binds to the methylated peptide, indirectly binding to the Europium lanthanide. […]
The compound dilutions were prepared as 7.5% DMSO stock solutions in assay buffer. […] The plates were then read on Victor-3 with Excitation at 340 nm and Emissions collected at 615 and 665 nm in TR-FRET protocol. […]

IC50 [µM]	SMILES
0.011	CCC(=O)N1CCC(c2ccc(CN3CCN(C[C@H](O)CN4CCc5ccccc5C4)C3=O)nc2)CC1 [Compound 44, (R)-1-(3-(3,4-dihydroisoquinolin-2(1H)-yl)-2-hydroxypropyl)-3-((5-(1-propionylpiperidin-4-yl)pyridin-2-yl)methyl)imidazolidin-2-one]
0.01	CS(=O)(=O)N1CCC(c2ccc(CN3CCN(C[C@H](O)CN4CCc5ccccc5C4)C3=O)nc2)CC1 [Compound 43, (R)-1-(3-(3,4-dihydroisoquinolin-2(1H)-yl)-2-hydroxypropyl)-3-((5-(1-(methylsulfonyl)piperidin-4-yl)pyridin-2-yl)methyl)imidazolidin-2-one]
